In all, about 310,000 compounds went through this assay and about 14,000 (4.5%) showed an effect of 50% or more. Effects have a minus sign here. The list shows a part of the results.
molecular target: human ether-à-go-go-related gene (hERG) potassium channel (human, UniProt Q12809); assay: primary screen, population patch clamp on CHO cells stably expressing hERG
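Further: peak tail current of the secondary pulse compared with the same well before compound.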

human ether-à-go-go-related gene (hERG) potassium channel, sequence (Q12809 whole entry, looked up): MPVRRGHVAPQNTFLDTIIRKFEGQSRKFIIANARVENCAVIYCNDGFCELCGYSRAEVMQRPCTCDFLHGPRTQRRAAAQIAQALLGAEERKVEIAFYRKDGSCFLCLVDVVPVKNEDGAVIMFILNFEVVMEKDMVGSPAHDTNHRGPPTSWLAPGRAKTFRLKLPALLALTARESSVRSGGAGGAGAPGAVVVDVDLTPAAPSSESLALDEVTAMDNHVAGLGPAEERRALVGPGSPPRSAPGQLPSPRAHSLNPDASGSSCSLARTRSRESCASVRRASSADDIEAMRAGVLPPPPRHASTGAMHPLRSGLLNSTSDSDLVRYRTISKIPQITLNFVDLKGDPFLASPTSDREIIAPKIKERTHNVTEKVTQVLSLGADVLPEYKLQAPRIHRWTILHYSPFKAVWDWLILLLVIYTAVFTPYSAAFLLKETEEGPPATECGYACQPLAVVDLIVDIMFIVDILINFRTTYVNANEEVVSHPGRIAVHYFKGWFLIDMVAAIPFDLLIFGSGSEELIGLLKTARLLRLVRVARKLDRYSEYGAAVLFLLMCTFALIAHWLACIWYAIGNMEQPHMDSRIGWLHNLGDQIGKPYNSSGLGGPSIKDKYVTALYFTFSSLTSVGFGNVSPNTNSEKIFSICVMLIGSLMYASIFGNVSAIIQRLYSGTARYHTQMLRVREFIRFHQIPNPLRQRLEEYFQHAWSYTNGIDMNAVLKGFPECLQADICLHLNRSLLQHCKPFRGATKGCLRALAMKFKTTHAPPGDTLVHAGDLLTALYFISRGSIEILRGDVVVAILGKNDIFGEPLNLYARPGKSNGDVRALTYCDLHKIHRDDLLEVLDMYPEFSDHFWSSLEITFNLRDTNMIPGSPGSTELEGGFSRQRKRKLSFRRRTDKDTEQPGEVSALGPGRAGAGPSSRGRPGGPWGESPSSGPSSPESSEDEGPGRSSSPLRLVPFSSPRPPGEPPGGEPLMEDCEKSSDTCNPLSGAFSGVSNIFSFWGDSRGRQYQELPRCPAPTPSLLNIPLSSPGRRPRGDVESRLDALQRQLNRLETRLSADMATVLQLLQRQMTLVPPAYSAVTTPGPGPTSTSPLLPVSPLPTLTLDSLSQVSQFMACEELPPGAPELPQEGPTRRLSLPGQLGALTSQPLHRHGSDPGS

Structure (SMILES) | hERG current change (%, negative = inhibition) at 10uM [%]
O=S(=O)(NCCc1ccccc1)c1ccc(Br)cc1 | -4.76
CCn1cc(-c2ccnc3cc(C(=O)O)nn23)c(C)n1 | 14.9
C=C(C)CSc1nnc2n(N)c(=O)c3ccccc3n12 | 1.6
COc1ccc(/C=C/c2c(-c3ccc(OC)cc3)oc3ccc(-c4ccc(OC)cc4)cc23)cc1 | -8.24
O=C(NCc1cccs1)c1ccc2c(c1)ncn2C1CCCC1 | -35
CCCCNC(=O)CN1C(=O)NC2(CCOc3ccccc32)C1=O (centres unmarked) | 8.13
CCC(C(=O)NC1CCCC1)N(Cc1ccc2c(c1)OCO2)C(=O)c1snc(C(N)=O)c1N (centres unmarked) | -8.13
O=C(Cc1ccc2c(c1)OCCO2)N/N=C/c1ccco1 | -9.26
O=C(Nc1ccc(Br)cc1)C1CC(O)CN1C(=O)Oc1ccccc1 (centres unmarked) | 14.4
Cc1cc(C)c(NC(=O)CN2CCN(C)CC2)c(C)c1 | 6.42
O=C(CCS(=O)(=O)c1cccc2nsnc12)NCc1ccccc1Cl | 16.6
COCCCN(CC(=O)Nc1ccc(N2CCOCC2)cc1)S(=O)(=O)c1ccc(C)cc1 | 22.8
COC(=O)c1sc(NC(=O)C(C)c2ccccc2)nc1C (centres unmarked) | -2.3
COC(=O)C1=C(c2ccccc2OCc2ccccc2)C[C@@H]2CC[C@H]1N2C(=O)NCc1cccc(F)c1 | 9.86
Cc1cc(C(=O)CN2C(=O)NC3(CCCc4ccccc43)C2=O)c(C)n1Cc1ccccc1 (centres unmarked) | 9.25
Cn1cc(SCC(=O)NCCc2ccccc2)c2ccccc21 | -0.731
CC(CN(C(N)=O)c1ccccc1O)C(=O)O (centres unmarked) | -6.13
CCCc1cc(=O)n2[nH]c(Cc3ccccc3)nc2n1 | 6.61
CC(=O)COc1ccc2c(C)c(-c3ccccc3)c(=O)oc2c1 | 8.67

Structure (SMILES) | hERG current change (%, negative = inhibition) at 10uM [%]
O=C(NCCCN1CCCC1)c1ccc(CS(=O)(=O)c2c(Cl)cccc2Cl)o1 | -10.5
COC1CCCCC1NS(=O)(=O)c1ccccc1 (centres unmarked) | 5.01
CCCCC(=O)N=c1sc2cc(S(C)(=O)=O)ccc2n1C | -0.473
Cc1ccc(CSCC(=O)NCc2cccnc2)cc1 | 7.04
CC1(C)NC(=O)N(CC(O)CN(c2ccccc2)S(=O)(=O)c2ccccc2[N+](=O)[O-])C1=O (centres unmarked) | 13.7
CCOC(=O)C1=C(C)NC(SC)=C(C#N)C1CC(C)C (centres unmarked) | -12.3
O=C1c2ccccc2C(Nc2ccccc2)N1Cc1ccc2c(c1)OCO2 (centres unmarked) | -0.624
CCCCOC1(c2ccccc2)NC(=S)NN=C1c1ccccc1 (centres unmarked) | 9.03
CCN(Cc1cc2ccccc2[nH]c1=O)C(=O)C(C)C | -12.8
CC(C)(CNC(=O)/C=C/c1ccc(F)cc1)CNC(=O)/C=C/c1ccc(F)cc1 | -26.3
O=C(Cn1nnc2ccccc21)NCc1ccccc1 | 4.47
CSCCC(N=C(NS(=O)(=O)c1ccc(C)cc1)c1ccccc1)C(=O)O (centres unmarked) | 0.808
CC1SC(c2ccccc2)N(CC(O)c2ccc([N+](=O)[O-])cc2)C1=O (centres unmarked) | -80.6
CC(=O)Nc1sc2c(c1C(c1ccccn1)N1CCCC1)CCCC2 (centres unmarked) | -10
Cc1ccc(-c2cc(C(F)F)n3ncc(C(=O)N4CCCc5ccccc54)c3n2)cc1 | 3.94
CCN(c1ccccc1)S(=O)(=O)c1cc(NC(=O)CSc2n[nH]c(=O)[nH]c2=O)ccc1Cl | 10.4
O=C(CSc1nnc(Nc2ccccc2F)s1)Nc1cccc(S(=O)(=O)N2CCCCC2)c1 | -6.58
O=c1ccn(Cc2ccccc2Cl)cc1 | 8.8
COc1ccc(OC)c(NC(=O)NNC(=O)COc2ccc(-c3ccccc3)cc2)c1 | -18

Structure (SMILES) | hERG current change (%, negative = inhibition) at 10uM [%]
Cc1ccc(/C=[N+](/C)[O-])cc1 | 13.8
O=C(NCC(c1ccco1)N1CCc2ccccc21)c1ccccc1Br (centres unmarked) | -29.3
CCc1nc(N2CCN(CC(=O)NCC3CCCO3)CC2)c(C#N)c2c1COC(C)(C)C2 (centres unmarked) | -0.194
CC(C)CNC(=O)C1CCN(CC2CCCCC2)CC1.O=C(O)C(=O)O | 8.99
S=c1[nH]nc(Cc2ccccc2)n1Cc1ccco1 | -5.08
CCn1cc(C(=O)N(C)CC(OC)OC)c(=O)c2cc(S(=O)(=O)N3CCOCC3)ccc21 | 14
c1ccc(-c2ccc(Oc3cc(N4CCOCC4)nc(-c4ccccc4)n3)cc2)cc1 | 15
Cc1cc(C(C)(C)CC(C)(C)C)ccc1OCCOCC[N+](C)(C)Cc1ccccc1.[Cl-] | -80.9
COc1cccc(C2C(C#N)=C(N)SC(c3ccccc3)C2[N+](=O)[O-])c1 (centres unmarked) | 7.43
O=C(NNc1nc2cc3c(cc2s1)OCO3)c1ccc(F)cc1 | 2.26
CC(C)(C)NC(=O)c1ccc2c(c1)N(CC(=O)N1CCN(c3ccccc3F)CC1)C(=O)C(C)(C)O2 | -2.41
O=C(N=C1SC2CS(=O)(=O)CC2N1c1ccc(Cl)cc1)C1CCCO1 (centres unmarked) | 8.45
O=C(CSc1nnc(-c2ccco2)o1)c1ccc[nH]1 | 8.21
CCc1ccc(-n2cc(-c3ccc([N+](=O)[O-])cc3)[nH]c2=S)cc1 | 7.22
CC(=O)Nc1cccc(C2=CC(c3ccco3)n3ncnc3N2)c1 (centres unmarked) | 1.29
O=C(CCc1ccccc1)N/N=C\C1CC=CCC1 (centres unmarked) | 7.94
CCc1ccccc1N(C(=O)c1ccco1)C(C(=O)NC1CCCC1)c1cccnc1 (centres unmarked) | -15.8
O=c1c2ccccc2nc2n1C(CSc1ccccc1)CS2 (centres unmarked) | -19.6

— paper PMC4336329 (PLoS ONE, 2015)
